Source: the supplement of paper PMC4604168 (melanoma cell lines)
The other results are listed elsewhere or left out. Repeats are few or missing, and single values can be far off.

Tested on: A2058
Assay: cell count relative to DMSO control; melanoma cells; higher = more viable cells
Settings: library dose: low library concentration; 72 h
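Further: cell number obtained by counting DAPI-stained nuclei in high-throughput microscope images with image analysis software, screen run in 1,536-well plates.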

| Structure (SMILES) | cell count |
| --- | --- |
| C[C@@H](Oc1cc(-c2cnn(C3CCNCC3)c2)cnc1N)c1c(Cl)ccc(F)c1Cl [Crizotinib] + CCCCCCCCCCCC1=C(O)C(=O)C=C(O)C1=O [Embelin] (first compound 0.2 µM, partner dose 1.2 µM) | 107% |
| CN1CCN(c2ccc3nc(-c4c(N)c5c(F)cccc5[nH]c4=O)[nH]c3c2)CC1 [Dovitinib] + CCCCCCCCCCCC1=C(O)C(=O)C=C(O)C1=O [Embelin] (first compound 0.1 µM, partner dose 1.2 µM) | 80.8% |
| CN1CCN(c2ccc3nc(-c4c(N)c5c(F)cccc5[nH]c4=O)[nH]c3c2)CC1 [Dovitinib] + CCN(CC)CCCCNc1ncc2cc(-c3cc(OC)cc(OC)c3)c(NC(=O)NC(C)(C)C)nc2n1 [PD173074] (first compound 0.1 µM, partner dose 0.1 µM) | 90.1% |
| CS(=O)(=O)CCNCc1ccc(-c2ccc3ncnc(Nc4ccc(OCc5cccc(F)c5)c(Cl)c4)c3c2)o1 [lapatinib] + COC(=O)c1sccc1S(=O)(=O)Nc1ccc(Nc2ccccc2)cc1OC [GSK0660] (first compound 0.8 µM, partner dose 1 µM) | 86.5% |
| C=CCNC1=C2C[C@@H](C)C[C@H](OC)[C@H](O)[C@@H](C)/C=C(\C)[C@H](OC(N)=O)[C@@H](OC)/C=C\C=C(/C)C(=O)NC(=CC1=O)C2=O [Tanespimycin] + COC(=O)c1sccc1S(=O)(=O)Nc1ccc(Nc2ccccc2)cc1OC [GSK0660] (first compound 0.002 µM, partner dose 1 µM) | 104% |
| C[C@@H](Oc1cc(-c2cnn(C3CCNCC3)c2)cnc1N)c1c(Cl)ccc(F)c1Cl [Crizotinib] + O=S(=O)(c1ccccc1)N(CC(F)(F)F)c1ccc(C(O)(C(F)(F)F)C(F)(F)F)cc1 [T0901317] (first compound 0.2 µM, partner dose 1.4 µM) | 72.6% |
| C=CCNC1=C2C[C@@H](C)C[C@H](OC)[C@H](O)[C@@H](C)/C=C(\C)[C@H](OC(N)=O)[C@@H](OC)/C=C\C=C(/C)C(=O)NC(=CC1=O)C2=O [Tanespimycin] + CCCCCCCCCCCC1=C(O)C(=O)C=C(O)C1=O [Embelin] (first compound 0.002 µM, partner dose 1.2 µM) | 98.8% |
| CNC(=O)c1cc(Oc2ccc(NC(=O)Nc3ccc(Cl)c(C(F)(F)F)c3)cc2)ccn1 [sorafenib] + COC(=O)c1sccc1S(=O)(=O)Nc1ccc(Nc2ccccc2)cc1OC [GSK0660] (first compound 0.4 µM, partner dose 1 µM) | 95.6% |
| CNC(=O)c1cc(Oc2ccc(NC(=O)Nc3ccc(Cl)c(C(F)(F)F)c3)cc2)ccn1 [sorafenib] + CCN(CC)CCCCNc1ncc2cc(-c3cc(OC)cc(OC)c3)c(NC(=O)NC(C)(C)C)nc2n1 [PD173074] (first compound 0.4 µM, partner dose 0.1 µM) | 81.1% |
| CN1CCN(c2ccc3nc(-c4c(N)c5c(F)cccc5[nH]c4=O)[nH]c3c2)CC1 [Dovitinib] + O=c1cc(-c2cccc3c2Sc2ccccc2S3)oc(N2CCOCC2)c1 [KU55933] (first compound 0.1 µM, partner dose 1 µM) | 100% |
| C=CCNC1=C2C[C@@H](C)C[C@H](OC)[C@H](O)[C@@H](C)/C=C(\C)[C@H](OC(N)=O)[C@@H](OC)/C=C\C=C(/C)C(=O)NC(=CC1=O)C2=O [Tanespimycin] + O=C1NC(=O)/C(=C/c2ccc(-c3ccc(F)cc3O)o2)S1 [AS252424] (first compound 0.002 µM, partner dose 1 µM) | 106% |
| C=CCNC1=C2C[C@@H](C)C[C@H](OC)[C@H](O)[C@@H](C)/C=C(\C)[C@H](OC(N)=O)[C@@H](OC)/C=C\C=C(/C)C(=O)NC(=CC1=O)C2=O [Tanespimycin] + O=C(O)C(=O)Nc1sc2c(c1C(=O)O)CCNC2 [TCS401] (first compound 0.002 µM, partner dose 1.66667 µM) | 102% |
| C=CCNC1=C2C[C@@H](C)C[C@H](OC)[C@H](O)[C@@H](C)/C=C(\C)[C@H](OC(N)=O)[C@@H](OC)/C=C\C=C(/C)C(=O)NC(=CC1=O)C2=O [Tanespimycin] + COc1ccc2c(c1)CCC1C2CCC2(C)C(NCCCCCCN3C(=O)C=CC3=O)CCC12 [U73122] (first compound 0.002 µM, partner dose 0.4 µM) | 87.7% |
| CNC(=O)c1cc(Oc2ccc(NC(=O)Nc3ccc(Cl)c(C(F)(F)F)c3)cc2)ccn1 [sorafenib] + N#Cc1c(O)c2c(-c3ccc(-c4ccccc4O)cc3)csc2[nH]c1=O [A769662] (first compound 0.4 µM, partner dose 2 µM) | 93.3% |
| CS(=O)(=O)CCNCc1ccc(-c2ccc3ncnc(Nc4ccc(OCc5cccc(F)c5)c(Cl)c4)c3c2)o1 [lapatinib] + Oc1cc(-c2nc(-c3ccccc3)[nH]c2-c2ccncc2)ccc1Cl [L779450] (first compound 0.8 µM, partner dose 0.2 µM) | 102% |
| CN1CCN(c2ccc3nc(-c4c(N)c5c(F)cccc5[nH]c4=O)[nH]c3c2)CC1 [Dovitinib] + O=C(O)C(=O)Nc1sc2c(c1C(=O)O)CCNC2 [TCS401] (first compound 0.1 µM, partner dose 1.66667 µM) | 85.2% |
| C=CCNC1=C2C[C@@H](C)C[C@H](OC)[C@H](O)[C@@H](C)/C=C(\C)[C@H](OC(N)=O)[C@@H](OC)/C=C\C=C(/C)C(=O)NC(=CC1=O)C2=O [Tanespimycin] + COc1ccc(COc2ccc(Cc3cnc(N)nc3N)cc2OC)cc1 [GW2580] (first compound 0.002 µM, partner dose 1 µM) | 89.1% |
| CNC(=O)c1cc(Oc2ccc(NC(=O)Nc3ccc(Cl)c(C(F)(F)F)c3)cc2)ccn1 [sorafenib] + COc1ccc(-c2ccc3c(N4CCOCC4)nc(N4C[C@@H](C)O[C@@H](C)C4)nc3n2)cc1CO [KU0063794] (first compound 0.4 µM, partner dose 0.02 µM) | 105% |
| CNC(=O)c1cc(Oc2ccc(NC(=O)Nc3ccc(Cl)c(C(F)(F)F)c3)cc2)ccn1 [sorafenib] + COc1ccc2c(c1)CCC1C2CCC2(C)C(NCCCCCCN3C(=O)C=CC3=O)CCC12 [U73122] (first compound 0.4 µM, partner dose 0.4 µM) | 79.6% |
| C[C@@H](Oc1cc(-c2cnn(C3CCNCC3)c2)cnc1N)c1c(Cl)ccc(F)c1Cl [Crizotinib] + O=c1cc(-c2cccc3c2Sc2ccccc2S3)oc(N2CCOCC2)c1 [KU55933] (first compound 0.2 µM, partner dose 1 µM) | 97.7% |
| C[C@@H](Oc1cc(-c2cnn(C3CCNCC3)c2)cnc1N)c1c(Cl)ccc(F)c1Cl [Crizotinib] + COC(=O)c1sccc1S(=O)(=O)Nc1ccc(Nc2ccccc2)cc1OC [GSK0660] (first compound 0.2 µM, partner dose 1 µM) | 91.3% |
| CS(=O)(=O)CCNCc1ccc(-c2ccc3ncnc(Nc4ccc(OCc5cccc(F)c5)c(Cl)c4)c3c2)o1 [lapatinib] + O=C(O)C(=O)Nc1sc2c(c1C(=O)O)CCNC2 [TCS401] (first compound 0.8 µM, partner dose 1.66667 µM) | 110% |
